Test results from publication PMC4336329 (PLoS ONE, 2015).
Hit rate of the full screen: of about 310,000 compounds, about 2,200 (0.71%) showed an effect of 50% or more. The effect is printed as a negative number. Some of the results follow.

biological target: human ether-à-go-go-related gene (hERG) potassium channel (human, UniProt Q12809); experiment: primary screen, population patch clamp on CHO cells stably expressing hERG
Sequence (Q12809 whole entry, looked up): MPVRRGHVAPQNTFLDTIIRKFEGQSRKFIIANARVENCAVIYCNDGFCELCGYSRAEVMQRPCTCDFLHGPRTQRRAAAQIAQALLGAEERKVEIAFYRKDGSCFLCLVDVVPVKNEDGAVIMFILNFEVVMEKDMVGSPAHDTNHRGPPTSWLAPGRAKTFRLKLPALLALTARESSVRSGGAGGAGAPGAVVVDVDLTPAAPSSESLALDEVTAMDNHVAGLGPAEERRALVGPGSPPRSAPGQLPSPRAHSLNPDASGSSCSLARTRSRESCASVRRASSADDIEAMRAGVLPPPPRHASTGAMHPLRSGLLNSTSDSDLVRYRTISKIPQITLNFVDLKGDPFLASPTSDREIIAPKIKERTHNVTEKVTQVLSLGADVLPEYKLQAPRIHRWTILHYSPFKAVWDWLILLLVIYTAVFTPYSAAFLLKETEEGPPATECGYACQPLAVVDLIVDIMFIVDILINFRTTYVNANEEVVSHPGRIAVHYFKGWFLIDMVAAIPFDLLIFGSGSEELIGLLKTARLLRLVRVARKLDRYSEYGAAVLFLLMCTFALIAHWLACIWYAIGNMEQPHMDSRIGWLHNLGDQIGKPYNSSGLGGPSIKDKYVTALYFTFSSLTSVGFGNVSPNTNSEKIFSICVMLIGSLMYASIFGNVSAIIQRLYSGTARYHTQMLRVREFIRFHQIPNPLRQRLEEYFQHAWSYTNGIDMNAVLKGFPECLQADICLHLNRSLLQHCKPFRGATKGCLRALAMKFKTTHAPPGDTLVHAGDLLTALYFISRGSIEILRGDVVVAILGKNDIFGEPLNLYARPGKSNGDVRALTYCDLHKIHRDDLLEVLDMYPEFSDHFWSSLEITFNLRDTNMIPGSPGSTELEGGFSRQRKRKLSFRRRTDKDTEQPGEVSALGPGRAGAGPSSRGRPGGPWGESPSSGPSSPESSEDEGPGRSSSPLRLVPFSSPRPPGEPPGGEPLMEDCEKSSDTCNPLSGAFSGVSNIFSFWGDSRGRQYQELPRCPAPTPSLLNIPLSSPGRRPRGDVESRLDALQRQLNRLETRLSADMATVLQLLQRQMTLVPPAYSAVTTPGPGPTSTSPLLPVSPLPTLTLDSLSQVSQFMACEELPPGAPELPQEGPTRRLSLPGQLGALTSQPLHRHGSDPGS

Compound | hERG current change (%, negative = inhibition) at 1uM
NS(=O)(=O)c1cccc(NC(=O)CC(NC(=O)c2ccccc2Cl)c2ccccc2)c1 (stereo not drawn) | 11.4%
CN(C)c1ccc(CN(C(=O)/C=C/c2ccco2)C2CCS(=O)(=O)C2)cc1 (stereo not drawn) | 11.7%
COc1cc(-c2nc3ccccn3c2/N=C/c2cccc(F)c2)ccc1O | 8.25%
CSc1ccccc1NC(=O)COC(=O)c1ccc(O)cc1 | -1.15%
O=C(CN1CCc2ccccc2C1)c1cccs1.O=C(O)C(=O)O | 9.94%
CCn1ncc([N+](=O)[O-])c1C(=O)n1nc(C)cc1C | 4.35%
O=C(O)C1CC1C(=O)Nc1nc2c(Cl)cccc2s1 (stereo not drawn) | 16.2%
O=C(C1CCCCN1S(=O)(=O)c1ccc(F)cc1)N1CCN(c2ccccc2F)CC1 (stereo not drawn) | 4.51%
Cc1ccc2c(c1)CC1(CN2C)C(=O)NC(=O)N(c2ccccc2C)C1=O (stereo not drawn) | 5.48%
O=C(Cc1cccs1)N1CCC2(CC1)OCCO2 | -1.87%
CCc1nnc(NC(=O)c2cccc(S(=O)(=O)N3CCN(c4ccccc4)CC3)c2)s1 | 13.1%
CCC(=O)N1CCc2cc(S(=O)(=O)NC(Cc3ccccc3)C(=O)NC3CCCCC3C)ccc21 (stereo not drawn) | 0.125%
CC(NC(=O)COC(=O)CSc1ccc(F)cc1)c1ccc(F)cc1 (stereo not drawn) | 11.6%
Cc1ccc(NC(=O)CNC(=O)c2ccc3c(c2)OCO3)nc1 | 7.61%
O=S(=O)(NCCc1ccncc1)c1ccccc1 | 9.02%
CC1CCN(C(=O)C(=O)Nc2sc3c(c2C(N)=O)CC(C)(C)OC3)CC1 | 13.4%
CCc1nnc(NC(=O)c2ccc(S(=O)(=O)N3CCc4ccccc4C3)cc2)s1 | 10.8%
Cc1cc(-c2n[nH]c(=S)n2/N=C/c2cccc(O)c2)n[nH]1 | 19.8%
CCC(=O)Nc1ccc(CCC(=O)N2CCCC2)cc1 | 15.5%
CCOC(=O)N=Nc1c(O)n(Cc2ccccc2)c2ccccc12 | 12.8%
CCC(=O)Nc1ccc(Br)c(Cl)c1 | 13.7%
COc1ccccc1C(=O)NCCC(=O)NCC(c1ccc(F)cc1)N1CCOCC1 (stereo not drawn) | 6.98%
CCOC(=O)c1c(NC(=O)CN2C(=O)c3ccccc3C2=O)sc(Cc2ccc3c(c2)OCO3)c1C | 5.18%
COc1ccc(C(=O)c2coc3c2C(=O)C(=O)c2ccccc2-3)cc1 | 11.1%
